Assay results: article PMC4336329 (PLoS ONE, 2015)
Among all 310,000 compounds or so, about 14,000 (4.5%) showed an effect of 50% or more. Effects have a minus sign here. The list shows a part of the results.

Target: human ether-à-go-go-related gene (hERG) potassium channel (human, UniProt Q12809)
Test: primary screen, population patch clamp on CHO cells stably expressing hERG
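Also: peak tail current of the secondary pulse compared with the same well before compound.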

human ether-à-go-go-related gene (hERG) potassium channel, sequence (Q12809 whole entry, looked up): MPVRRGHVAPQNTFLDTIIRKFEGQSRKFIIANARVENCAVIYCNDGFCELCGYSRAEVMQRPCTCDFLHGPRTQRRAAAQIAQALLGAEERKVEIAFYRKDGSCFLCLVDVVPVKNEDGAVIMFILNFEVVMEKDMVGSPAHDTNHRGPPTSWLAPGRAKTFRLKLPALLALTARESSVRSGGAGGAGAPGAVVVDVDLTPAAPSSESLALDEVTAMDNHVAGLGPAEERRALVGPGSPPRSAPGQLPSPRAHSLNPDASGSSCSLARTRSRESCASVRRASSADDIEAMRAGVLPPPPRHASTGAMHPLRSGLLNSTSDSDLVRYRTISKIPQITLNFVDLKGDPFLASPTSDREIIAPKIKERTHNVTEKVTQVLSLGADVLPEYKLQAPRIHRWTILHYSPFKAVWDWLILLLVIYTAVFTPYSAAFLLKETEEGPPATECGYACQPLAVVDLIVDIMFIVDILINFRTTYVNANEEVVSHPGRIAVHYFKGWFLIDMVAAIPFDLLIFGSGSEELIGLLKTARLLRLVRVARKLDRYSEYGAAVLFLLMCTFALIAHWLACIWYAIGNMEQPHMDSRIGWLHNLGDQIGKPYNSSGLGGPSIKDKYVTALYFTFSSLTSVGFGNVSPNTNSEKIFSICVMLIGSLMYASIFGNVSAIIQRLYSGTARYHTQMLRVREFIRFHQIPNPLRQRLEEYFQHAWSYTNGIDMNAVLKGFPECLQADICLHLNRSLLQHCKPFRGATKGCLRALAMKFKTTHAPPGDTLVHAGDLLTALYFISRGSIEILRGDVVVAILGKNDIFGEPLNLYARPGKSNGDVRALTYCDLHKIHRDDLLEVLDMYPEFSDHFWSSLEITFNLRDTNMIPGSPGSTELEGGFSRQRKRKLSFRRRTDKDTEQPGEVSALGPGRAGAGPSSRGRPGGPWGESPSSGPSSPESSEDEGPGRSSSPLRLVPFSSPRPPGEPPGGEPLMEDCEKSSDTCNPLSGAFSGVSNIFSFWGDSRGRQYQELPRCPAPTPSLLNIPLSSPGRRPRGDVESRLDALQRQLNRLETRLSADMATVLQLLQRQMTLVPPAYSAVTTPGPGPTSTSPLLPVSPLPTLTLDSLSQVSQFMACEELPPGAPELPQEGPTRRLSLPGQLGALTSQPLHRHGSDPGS

| Compound | hERG current change (%, negative = inhibition) at 10uM |
| --- | --- |
| NC(=O)C1CCCN(C(=O)c2cccc(S(=O)(=O)N(Cc3ccccc3)c3ccccc3)c2)C1 (stereo not shown) | -32.3% |
| O=[N+]([O-])c1cccc(NN=Nc2ccccc2)c1 | 14.7% |
| C=CCOc1ccc(/C=N/NC(=O)C(C)Sc2ccccn2)cc1OCC (stereo not shown) | 20.6% |
| COc1ccc(C)cc1NC(=O)COC(C)=O | 9.18% |
| CCCc1c(C)nc(N2CCN(c3ccc(F)cc3)CC2)[nH]c1=O | 9.46% |
| O=C(CNC(=O)c1ccc(Cl)cc1)OCCCOC(=O)CNC(=O)c1ccc(Cl)cc1 | -7.13% |
| COc1ccc(/C=N/n2cnc3c([nH]c4ccc(F)cc43)c2=O)cc1CN1CCCC1 | -68% |
| O=C(Nc1ccc(S(=O)(=O)Nc2nccs2)cc1)C1CCCCC1 | -6.27% |
| COc1cc(C2Nc3cc(C)c(C)cc3NC3=C2C(=O)CC(C)(C)C3)ccc1OC(C)=O (stereo not shown) | 21.1% |
| C=CCn1c2ccccc2c(=O)c2cc(C#Cc3ccsc3)ccc21 | -0.176% |
| CCCN1CCN(C(=O)c2ccc(F)c(S(=O)(=O)N3CCOCC3)c2)CC1.Cl | -6.88% |
| Cc1ccc(-c2nc(CS(=O)(=O)CC(=O)NCCN3CCCC3)c(C)o2)cc1 | 8.15% |
| Cc1ccc(S(=O)(=O)N(C)Cc2ccc(C(=O)N/N=C3\CC(=O)CC(C)(C)C3)cc2)cc1 | 2.94% |
| COc1ccc(OC)c(CCNC(=O)CC2Oc3ccccc3NC2=O)c1 (stereo not shown) | -9.47% |
| COc1ccc(CNC(=O)c2cc3cccc(OC)c3oc2=N)cc1 | 12.4% |
| COc1ccc(N2CC2c2ccncc2)cc1 (stereo not shown) | 18.9% |
| OCCN(CC#CCn1c2ccccc2c2ccccc21)CCO | 3.51% |
| COc1cc([N+](=O)[O-])ccc1NC(=O)Nc1ccc(C(=O)N2CCCC2)cc1 | 7.18% |
| Cc1ccc(C)n1-c1nn(S(=O)(=O)c2cccc3cccnc23)c2cccc(F)c12 | 22.7% |
| COC(=O)c1cc(=O)n(Cc2ccc(OC)c(OC)c2)c(=Nc2ccc(F)cc2)s1 | 15.2% |
| Cc1nn(CSc2c(F)c(F)c(F)c(F)c2F)c(C)c1[N+](=O)[O-] | 1.3% |
| COc1cccc(CNC(=O)C2CCN(S(=O)(=O)c3cnc[nH]3)CC2)c1 | 5.71% |

| Compound | hERG current change (%, negative = inhibition) at 10uM |
| --- | --- |
| COc1ccc(-c2noc(CCCC(=O)NC3CCCCC3)n2)cc1OC | 9.83% |
| CSc1n[nH]c(NC2=CC(=O)CCC2)n1 | 8.23% |
| NC(=O)c1ccc(N2CCCCC2)c(N2C(=O)CCC2=O)c1 | -7.94% |
| O=C(NC1=NCCS1)c1sc2cc(F)ccc2c1Cl | 9.4% |
| CCn1cc([N+](=O)[O-])c(C(=O)N2N=C(c3ccc4ccccc4c3)CC2c2cc(Br)ccc2O)n1 (stereo not shown) | 17.2% |
| NC1=NC[C@H](Cc2ccc(O)cc2)N1CC1CCCCC1 | 8.65% |
| CCOC(=O)c1cccc(NC(=O)CNC(=O)C2CCCCC2)c1 | -3.8% |
| COc1ccc(-n2nnnc2SCC(=O)NC2CC2)cc1 | 7.6% |
| Cc1cc(Cl)c(S(=O)(=O)NCCC(=O)O)cc1OCC(N)=O | 17.8% |
| O=C1c2cccnc2C(=O)N1Cc1ccc(S(=O)(=O)N2CCOc3ccc(Cl)cc32)cc1 | 13.7% |
| O=C(c1ccccc1F)N1CCN=C1c1ccccc1 | 1.58% |
| COc1ccc(Nc2n[nH]c(C)c2[N+](=O)[O-])cc1 | 9.52% |
| CCP(=O)(CC)c1cccc(N)c1 | -2.95% |
| O=C(NNc1nc2ccccc2s1)c1ccccc1F | -7.04% |
| COc1ccc(CC(=O)NNC(=O)c2ccoc2C)cc1OC | 6.04% |
| CC(C)=CCN1CCN(Cc2cnc(N3CCCC3)s2)CC1CCO (stereo not shown) | 34.1% |
| Cc1c(NC(=O)COC(=O)CSc2ccc([N+](=O)[O-])cc2)c(=O)n(-c2ccccc2)n1C | -11.1% |
| N#C/C(=C(\O)c1ccco1)c1ccccn1 | 2.52% |
| COc1ccc(-n2c(SC(C)C(=O)Nc3ncc(Cl)cc3Cl)nc3ccccc32)cc1 (stereo not shown) | 1.47% |
| COc1ccc(CCNC(=O)c2ccc3c(c2)S(=O)(=O)N=C2CCCCCN23)cc1 | -5.16% |
| Cc1cc2nc(C(F)(F)F)cc(-c3cccs3)n2n1 | 23.6% |
| O=C(NCc1ccc(F)cc1)C(=O)NCC1OCCN1S(=O)(=O)c1cccs1 (stereo not shown) | -9.44% |

| Compound | hERG current change (%, negative = inhibition) at 10uM |
| --- | --- |
| CCc1ccc(N2CC(C(=O)OCC(=O)Nc3ccccc3C)CC2=O)cc1 (stereo not shown) | 5.78% |
| O=C(Cc1c(F)cccc1Cl)N1CCN(S(=O)(=O)c2cccc(F)c2)CC1 | 7.81% |
| Cc1cccc(C)c1NS(=O)(=O)c1cc2c3c(c1)CCN3C(=O)CC2 | -10% |
| N#Cc1ccc(CSc2nnc(NC(=O)CCc3nc4ccccc4c(=O)[nH]3)s2)cc1 | -3.53% |
| COc1ccc(N2CCN(C3CCCN(C(=O)CSC)C3)CC2)cc1 (stereo not shown) | 3.1% |
| CCCC(C(=O)NC1CCCC1)N(Cc1ccc(F)cc1)C(=O)c1snc(C(N)=O)c1N (stereo not shown) | -45% |
| Cc1ccnc(NC(=O)CCC(=O)N(CC(=O)NCc2ccc(F)cc2)c2cccc(F)c2)c1 | 8.76% |
| Cc1cc(C)n(CCC(=O)N2CCN(S(=O)(=O)c3ccccc3)CC2)n1 | 19.4% |
| O=C(CN1CCCc2ccccc21)NCCc1ccc(Cl)cc1 | -13.1% |
| CCCCC(CC)COC(=O)c1ccccc1C(=O)OCC(CC)CCCC (stereo not shown) | 9.63% |
| Cc1ccc(S(=O)(=O)N(C)c2ccc(OCC(=O)NCc3ccco3)cc2)cc1 | -44.8% |
| C[C@H]1CC[C@H]2NCCN[C@H]2C1 | 4.76% |
| C/C(=N\Nc1ccccn1)c1ccc2c(c1)OCO2 | -8.06% |
| S=C1NC(c2ccccc2)=NCN1c1ccc(Br)cc1 | -12.9% |
| C=CCN(C(=O)c1csnn1)C(C(=O)NC1CCCC1)c1ccc(F)cc1 (stereo not shown) | -0.596% |
| O=C(/C=C/c1ccccc1)NCCc1ccccc1 | -0.345% |
| c1ccc(-n2nnc3ccccc32)nc1 | 3.7% |
| COc1ccc(Cl)cc1NC(=O)CN(C)C(=O)CCC(=O)c1cc(C)sc1C | -29.5% |
| COc1cccc(N=Nc2c(=O)[nH]n3c(C)cc(C)nc23)c1 | -17.5% |
| CC1(C)Cc2ccccc2C(=NCCCC(=O)O)N1 | 9.66% |
| C=CCn1c(O)c(C(C)=Nc2cccc(C(F)(F)F)c2)c(=O)[nH]c1=O | 2.66% |
| Cc1ccc(S(=O)(=O)N2CCN(c3ccc(C(F)(F)F)cc3[N+](=O)[O-])CC2)cc1 | -30.8% |

| Compound | hERG current change (%, negative = inhibition) at 10uM |
| --- | --- |
| CCNc1nc(NCC)nc(N/N=C/c2ccc(O)c(O)c2)n1 | 25.9% |
| COC(=O)C1=C(C)N(C2CCCCC2)C(=O)/C1=C\c1cccs1 | 14.8% |
| COc1cccc(C2CC(c3c(F)cccc3Cl)n3nc(N)nc3N2)c1 (stereo not shown) | -2.6% |
| S=c1[nH]cnc2sc(Nc3ccccc3)nc12 | 20.7% |
| Cc1c(OC(C)C(=O)NCC2CCC(C(=O)O)CC2)ccc2c3c(c(=O)oc12)CCCC3 (stereo not shown) | -12.6% |
| CCOC(=O)C1=C(C)Nc2nc(SCc3cccnc3)nn2C1c1ccc(OC)cc1 (stereo not shown) | 2.63% |
| CCOC(=O)CNC(=O)N1c2ccccc2Sc2ccccc21 | 6.18% |
| Cc1ccc(SCC(=O)OC(C)C(=O)N2CCc3ccccc32)cc1 (stereo not shown) | -6.65% |
| Cc1c2c(nc3c(C(=O)NC4CC4)cnn13)CCCC2 | -8.22% |
| COc1ccc(OC)c(NC(=O)C(=O)NCCC2=CCCCC2)c1 | 7.22% |
| CCCCCCCCCCCCCCCC(=O)OC/C=C(C)/C=C/C=C(C)/C=C/C1=C(C)CCCC1(C)C | 13.7% |
| O=C(NCc1ccccn1)C1CCCN(S(=O)(=O)c2ccccc2)C1 (stereo not shown) | 10.9% |
| O=C(CN1C(=O)c2ccccc2C1=O)Nc1cc(C(=O)O)cc(C(=O)O)c1 | 7.72% |
| O=c1cc(-c2cc3ccccc3o2)c2cc(O)ccc2o1 | 13.3% |
| COc1cc(/C=C(/C#N)c2nc3ccccc3[nH]2)ccc1OCc1ccc(C(=O)O)o1 | 10.7% |
| CC(=O)N1CCN(c2ccccc2NC(=O)c2ccc3ccccc3c2)CC1 | -61.9% |
| COc1cccc(N2CCN(C(=O)Nc3ccc4c(c3)NC(=O)CO4)CC2)c1 | -75.8% |
| O=c1[nH][nH]c(C(F)(F)F)c1/C=N/N1CCOCC1 | 18.5% |
| O=C(c1ncc[nH]1)c1ccco1 | 6.64% |
| N#C/C(=N\O)c1nc(-c2ccccc2)cs1 | 15.9% |
| CC(C)(C)C(=O)Oc1cc(N)n(S(=O)(=O)c2ccc(F)cc2)n1 | 8.96% |
| CC(=O)n1cc([C@@H]2C=C(C(=O)N3CCN(Cc4ccccc4)CC3)O[C@H](OCc3ccc(CO)cc3)C2)c2ccccc21 | -10.1% |
